PubChem BioAssay AID686971 (National Center for Advancing Translational Sciences (NCATS), 2013)
About 7,500 (2.1%) of roughly 360,000 compounds were called active. Inconclusive results, whose numbers are uncertain, are shown with a selection of clear calls. Calls follow the shape of the dose curve; as a rule, active = well fitted cell-killing curve with a large enough effect; inconclusive = small, poorly fitted or top-dose-only effect, or effect the other way, or another doubt; inactive = no such curve, though single readings can be large or run the other way. No potency is given beside an inconclusive call; the fits are too rough.

Assay: qHTS for induction of synthetic lethality in tumor cells producing 2HG: qHTS for the HT-1080-IDH1KD cell line;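 as to activity, negative = toxicity: 0% = DMSO wells and -100% = cell-free medium wells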
Conditions: HT-1080 IDH1 knockdown viability, ATP luminescence, 48 h; activity, negative = toxicity: at 46.1 µM (top of the series) unless noted
Summary of the method: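 In this qHTS, HT-1080 cells depleted of IDH1 are exposed for 48 h at 37 °C to compound titrations. Toxicity is scored from CellTiter-Glo luminescence, with DMSO as full viability and medium alone as none.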
Potency is read from the fitted curve at half-maximal effect; tags tell the direction and shape of the fitted curve.

| Compound | Potency | activity, negative = toxicity |
| --- | --- | --- |
| CCOC(=O)C1=C(CNCCc2ccc(Cl)cc2)NC(=O)NC1c1cccc([N+](=O)[O-])c1 (stereo unspecified) | inconclusive [cytotoxic, partial curve] |  |
| CC(=O)c1cccc(OCC(O)CNCCOc2ccc(C)cc2)c1 (stereo unspecified) |  | inactive: -13.6% |
| COC(=O)C1C=CC(OC2OC(COC(C)=O)C(OC(C)=O)C(OC(C)=O)C2OC(C)=O)n2c(=O)n(-c3ccccc3)c(=O)n21 (stereo unspecified) | active: 5.8 µM |  |
| C[C@@H]1CN([C@H](C)CO)C(=O)c2cc(NC(=O)Nc3ccc(C(F)(F)F)cc3)ccc2O[C@H]1CN(C)Cc1ccc(Cl)c(Cl)c1 | inconclusive [cytotoxic, single point] |  |
| CN(CCc1ccccc1)C(=O)c1ccc(NC(=O)Cc2ccc(NC(=O)C3CCN(C(=O)c4ccccc4)CC3)cc2)cc1 | inconclusive [cytotoxic, single point] |  |
| CCN1CCN(C(=O)C2CCN(Cc3nc(-c4cccc(Cl)c4)oc3C)CC2)CC1 |  | inactive: -18% |
| CC(C)NC(=O)N(C)C[C@@H]1OCCCC[C@@H](C)Oc2ccc(NC(=O)Nc3ccc(F)cc3)cc2C(=O)N([C@H](C)CO)C[C@@H]1C |  | inactive: -3.6% |
| CC1CCCN(CC(=O)Nc2ccc(S(=O)(=O)N3CCCCCC3)cc2)C1 (stereo unspecified) | inconclusive [cytotoxic, single point] |  |
| COC(=O)C1=CN(c2ccc(C)cc2)C(N)=C(C#N)C1c1ccc(OC)cc1 (stereo unspecified) | inconclusive [cytotoxic, single point] |  |
| COC(=O)C1=CN(c2ccc(F)cc2)C=C(C(=O)OC)C1c1ccc(O)cc1 | inconclusive [cytotoxic, single point] |  |
| CCCc1ccc(OCc2ccc(C(=O)N/N=C/c3cccc([N+](=O)[O-])c3)o2)c(OC)c1 | inconclusive [cytotoxic, partial curve] |  |
| CCCCOc1ccc(C(=O)CCN2CCCCC2)cc1 | active: 18.4 µM |  |
| Cc1ccc(C(=O)N2c3ccccc3N(Cc3ccccc3)C(=O)C2(C)C)cc1 | inconclusive [cytotoxic, single point] |  |
| COc1cccc(C(=O)NNC2=C(C(=O)C(F)(F)F)CCC2)c1 | active: 11.6 µM |  |
| CSc1ccc(C(=O)C2CCCN(C(=O)c3nn(C)c(=O)c4ccccc34)C2)cc1 (stereo unspecified) | inconclusive [cytotoxic, single point] |  |
| COC(=O)[C@]1(Cc2ccccc2)N[C@H](CN(C)C(=O)Nc2ccccc2)[C@@H]2C(=O)N(Cc3ccccc3)C(=O)[C@@H]21 |  | inactive: -9.18% |
| Cc1nn(Cc2ccc(F)cc2)c2sc(C(=O)Nc3nccs3)cc12 |  | inactive: -19.2% |
| CCC(=O)OCCNc1cc(Sc2nccn2C)c2nonc2c1[N+](=O)[O-] | inconclusive [cytotoxic, single point] |  |
| C=CCNc1cc(C(F)(F)F)nc(-c2ccccn2)n1 |  | inactive: -0.228% |
| Cc1cc2ncn(/N=C/c3ccc4c(c3)OCO4)c2cc1C | inconclusive [cytotoxic, single point] |  |
| COC(=O)C1=C(C)N(c2cc(Cl)cc(Cl)c2)C(=O)C1 | inconclusive [cytotoxic, single point] |  |
| Cc1sc(NC(=O)CSc2nnc(-c3ccccc3)o2)c(C#N)c1C |  | inactive: 9.17% |

| Compound | Potency | activity, negative = toxicity |
| --- | --- | --- |
| O=[N+]([O-])c1ccccc1S(=O)(=O)N1CCCc2ccccc21 |  | inactive: -10.1% |
| O=C(NNc1ccccc1F)c1ccccc1 | active: 9.2 µM |  |
| Cc1ccc(NC(=O)CN2C(=O)NC(Cc3ccccc3)C2=O)c(Br)c1 (stereo unspecified) | inconclusive [cytotoxic, single point] |  |
| COc1ccc(Cl)cc1NC(=O)Cn1nc(-c2ccc(C)cc2)n(C)c1=S | inconclusive [cytotoxic, partial curve] |  |
| O=C(COC(=O)c1cnccn1)NCc1ccc2c(c1)OCO2 |  | inconclusive: 30.3% |
| Cc1onc(-c2c(F)cccc2Cl)c1C(=O)N1CCCc2ccccc21 | inconclusive [cytotoxic, single point] |  |
| O=C(NCCCN1CCCC1=O)c1cccc(S(=O)(=O)N2CCN(c3ccccc3)CC2)c1 |  | inactive: 9.05% |
| COc1ccccc1/C=N\N=C(\N)c1ccccn1 | inconclusive [rising, partial curve, poor fit] |  |
| CCOc1ccc(C(=O)N/N=C/c2cccc3cccnc23)cc1 | inconclusive [cytotoxic, single point] |  |
| COC(=O)c1ccc(C2C(Oc3ccccc3)C(=O)N2CCc2ccc(OC)c(OC)c2)cc1 (stereo unspecified) | inconclusive [cytotoxic, partial curve, poor fit] |  |
| N#Cc1cccc(-c2cn(S(=O)(=O)c3ccc(Cl)cc3)nc2N)c1 | inconclusive [cytotoxic, single point] |  |
| CCOC(=O)c1c(NC(=O)COC(=O)c2ccccc2NC)sc(C(=O)N(C)C)c1C | inconclusive [cytotoxic, single point] |  |
| O=C(/C=C/c1ccc(Cl)c([N+](=O)[O-])c1)Nc1ccc(N2CCCC2)c(Cl)c1 | active: 13 µM |  |
| O=C(NC(=S)NNC(=O)c1ccccc1O)c1ccco1 | inconclusive [cytotoxic, single point] |  |
| CCN1C(=O)/C(=C/c2ccc(C)s2)SC1=Nc1ccc(OC)cc1 | inconclusive [cytotoxic, single point] |  |
| CCc1nn(CC(=O)NCCCN(C)Cc2ccccc2)c(=O)c2cc3sc(C)cc3n12 | inconclusive [cytotoxic, single point] |  |
| COc1ccccc1Nc1nn2c(=O)c3ccc(C(=O)N4CCCCC4)cc3nc2s1 |  | inactive: 9.27% |
| CC1(C)Cc2ccccc2C(NNC(=O)c2ccc(Br)o2)=N1 |  | inactive: 10.9% |
| Cc1ccccc1N/C(SCc1ccc(Cl)cc1)=C(/C#N)C(=O)NCc1ccco1 | inconclusive [cytotoxic, single point] |  |
| Cc1ccc(S(=O)(=O)Nc2ccc(Nc3nccn4c(-c5cccc(OC(F)(F)F)c5)cnc34)cc2)cc1 | inconclusive [cytotoxic, full curve] |  |
| Cc1cc(Br)c(NC(=O)COC(=O)C2CC2C)c(Br)c1 (stereo unspecified) |  | inconclusive: 30.3% |
| N=C1/C(=C/c2ccco2)C(=O)N=C2SC(CC(=O)N3CCCC3)=NN12 |  | inactive: -0.854% |

| Compound | Potency | activity, negative = toxicity |
| --- | --- | --- |
| O=C(NCCN1CCCC1)c1ccc(Cn2c(=S)[nH]c3ccc(Br)cc3c2=O)cc1 | inconclusive [cytotoxic, single point] |  |
| C[C@@H]1CN([C@@H](C)CO)S(=O)(=O)c2ccc(Br)cc2O[C@H]1CN(C)Cc1ccc(-c2ccccc2)cc1 | active: 20.6 µM |  |
| Cc1c(-n2c(SC(C)C(=O)NC(N)=O)nc3ccccc3c2=O)c(=O)n(-c2ccccc2)n1C (stereo unspecified) |  | inactive: 3.78% |
| CC1=NOC(=O)/C1=C\c1ccc(-c2ccccc2Br)o1 | inconclusive [cytotoxic, single point] |  |
| COc1ccc(C2(c3ccc(OC(C)=O)cc3OC(C)=O)CC(c3ccccc3)NC(=S)N2)cc1 (stereo unspecified) | inconclusive [cytotoxic, single point] |  |
| CCCCCCCOC(=O)c1nc(Cl)c(Cl)c(N)c1Cl | inconclusive [cytotoxic, single point] |  |
| CCOC(=O)c1ccc(NC(=O)CCc2nc(-c3ccccc3Cl)no2)cc1 | inconclusive [cytotoxic, single point] |  |
| CN1CCc2nc3sc(C(=O)NCc4ccccc4)c(N)c3cc2C1 | inconclusive [cytotoxic, single point] |  |
| COc1ccccc1-n1c(SC(C)C(=O)NCC2CCCO2)nc2cc(Cl)ccc2c1=O (stereo unspecified) |  | inactive: -2.15% |
| O=C(Nc1nccs1)c1ccc(S(=O)(=O)c2ccccc2)cc1 | inconclusive [cytotoxic, single point] |  |
| COc1ccc(CNC(=O)C(c2ccco2)N(C(=O)c2snc(C(N)=O)c2N)c2cccc(OC)c2)cc1 (stereo unspecified) | inconclusive [cytotoxic, single point] |  |
| COc1ccccc1Cc1c(-c2cccc(Cl)c2)nc2ccc(Cl)cn12 | inconclusive [cytotoxic, partial curve] |  |
| CCN(CC)S(=O)(=O)c1ccc(N/N=C/c2cc(OC)ccc2O)nc1 | active: 4.61 µM |  |
| CC(=O)N1CCC(CCCC2CCN(C(C)=O)CC2)CC1 |  | inactive: 15.8% |
| CCOC(=O)CCC(=O)Nc1ccc(S(=O)(=O)Nc2cc(OC)nc(OC)n2)cc1 |  | inactive: 4.04% |
| COc1cccc(-c2nn(-c3ccc(C)cc3)cc2C(=O)N(C)CC(=O)Nc2cccc(F)c2)c1 | inconclusive [cytotoxic, single point] |  |
| Cc1cccc(NC(=O)c2cc(-c3ccc(C)s3)nc3ccccc23)n1 | inconclusive [cytotoxic, single point] |  |
| N#Cc1c(-c2ccccc2)c(-c2ccccc2)n[nH]c1=O | inconclusive [cytotoxic, partial curve] |  |
| O=C(Oc1c(-c2ccco2)oc2ccccc2c1=O)c1cccnc1 | inconclusive [cytotoxic, single point] |  |
| Cc1ccc(-c2nc3cccnc3s2)cc1NS(=O)(=O)c1ccc2c(c1)OCCO2 | inconclusive [cytotoxic, single point] |  |
| Cc1cc(C)nc(-n2nc(C)cc2NC(=O)c2ccc(F)cc2F)n1 | inconclusive [cytotoxic, partial curve] |  |
| O=C(Nc1ccc(S(=O)(=O)N2CCOCC2)cc1)c1ccc(Cl)c([N+](=O)[O-])c1 |  | inactive: -32.8% |
